According to US7410975B2, “Small molecule toll-like receptor (TLR) antagonists” (Coley Pharmaceutical Group, Inc., priority 2003, dated 2008):
Counter-ions that a name gives are not always drawn.

Biological target: T1, human TLR9 (hTLR9) (Homo sapiens, UniProt Q9NR96)
T1 construct: expressed in transfected cells
T1 sequence (Q9NR96 26-1032): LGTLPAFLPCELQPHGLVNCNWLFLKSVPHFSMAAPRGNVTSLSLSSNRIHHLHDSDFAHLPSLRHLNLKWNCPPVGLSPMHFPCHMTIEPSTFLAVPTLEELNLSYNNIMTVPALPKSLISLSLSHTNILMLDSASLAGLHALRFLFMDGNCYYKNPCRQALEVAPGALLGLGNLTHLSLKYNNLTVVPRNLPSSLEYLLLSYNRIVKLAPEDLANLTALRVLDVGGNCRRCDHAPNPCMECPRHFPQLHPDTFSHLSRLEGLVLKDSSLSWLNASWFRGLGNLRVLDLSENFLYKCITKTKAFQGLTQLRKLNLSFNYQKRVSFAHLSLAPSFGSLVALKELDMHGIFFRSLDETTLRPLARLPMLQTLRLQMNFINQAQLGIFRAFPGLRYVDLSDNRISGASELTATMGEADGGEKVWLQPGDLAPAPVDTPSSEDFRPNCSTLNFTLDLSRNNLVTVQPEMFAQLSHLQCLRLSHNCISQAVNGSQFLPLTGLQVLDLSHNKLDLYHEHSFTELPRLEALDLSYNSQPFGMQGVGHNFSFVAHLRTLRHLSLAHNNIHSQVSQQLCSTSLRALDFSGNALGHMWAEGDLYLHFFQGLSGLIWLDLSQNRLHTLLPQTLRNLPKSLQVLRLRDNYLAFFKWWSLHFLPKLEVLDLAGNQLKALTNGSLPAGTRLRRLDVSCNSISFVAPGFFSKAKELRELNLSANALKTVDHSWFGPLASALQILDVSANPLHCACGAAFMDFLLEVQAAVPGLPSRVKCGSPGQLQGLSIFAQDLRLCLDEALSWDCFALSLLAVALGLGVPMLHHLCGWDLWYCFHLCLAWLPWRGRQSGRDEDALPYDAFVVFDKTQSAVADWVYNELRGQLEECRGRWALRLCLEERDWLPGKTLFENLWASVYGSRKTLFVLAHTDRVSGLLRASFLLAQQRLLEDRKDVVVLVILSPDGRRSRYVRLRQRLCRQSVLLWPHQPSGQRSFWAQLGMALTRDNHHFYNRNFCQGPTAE
Test: Antagonist screen, hTLR9-NFκB-293 cells, 6× NF-κB-luciferase reporter, with EC50 of CpG ODN 2006
Assay type: cell-based
Settings: compound at 0.5, 5, 50 μg/ml, EC50 concentration of CpG ODN 2006, 16 h
Method: Candidate small molecules for initial screening were obtained from a commercially available library of 880 off-patent small molecules selected for structural diversity and proven bioavailability in humans (Prestwick Chemical Library). […] Results were measured as fold induction over baseline luciferase activity measured in the absence of ODN 2006 and compared to fold induction over baseline in the presence of the EC50 concentration of ODN 2006 alone. From this initial screening a number of small molecules were identified as lead compounds and were categorized by structure and activity. Additional screening was performed in like manner using additional small molecules selected from another library or specifically prepared for this purpose.
The method is described in greater detail as follows. The cells for each individual cell clone (hTLR3-NFκB-293, hTLR7-NFκB-293, hTLR8-NFκB-293 and hTLR9-NFκB-293) were counted and seeded one day before the stimulation at 1.5×10^4 cells per well in 96-well cell culture plates. To become adherent the cells were incubated after seeding overnight at 37° C. in 5% CO2 humidified air.
The screen for each compound was performed at the same time for all of the receptors TLR3, TLR7, TLR8 and TLR9. […]
For each screen result a graphical documentation was performed. A numerical score, describing the graphical results, was determined for each compound. […]
The baseline result (measured with addition of the EC50 concentration of the receptor-specific ligand) for each cell culture plate was measured as described above. Antagonistic effects were measured by down regulation compared to the baseline. Antagonists were scored as follows: • 13: compounds for which there was clear down regulation at 0.5 μg/ml, 5 μg/ml, and 50 μg/ml; • 12: compounds for which there was clear down regulation at 5 μg/ml and 50 μg/ml; • 11: compounds for which there was clear down regulation only at 50 μg/ml; • —: compounds for which there was no clear down regulation even at 50 μg/ml. […]

Q: With `CN1CCN2c3ccccc3Cc3ccccc3C2C1.Cl` (stereo not drawn) [compound 99, Mianserinehydrochloride] as the compound, how does the “hTLR9 (inhibitory effect, antagonist score)” value read?
A: — (compounds for which there was no clear down regulation even at 50 μg/ml)

Q: How did the “hTLR9 (inhibitory effect, antagonist score)” value turn out when `Cc1ccccc1C(OCCN(C)C)c1ccccc1` (stereo not drawn) [compound 239, Orphenadrinehydrochloride] was run?
A: 13 (compounds for which there was clear down regulation at 0.5 μg/ml, 5 μg/ml, and 50 μg/ml)

Q: `CN1CCC[C@@H]1CCO[C@](C)(c1ccccc1)c1ccc(Cl)cc1.O=C(O)/C=C/C(=O)O` [compound 306, Clemastine fumarate] was tested. Which “hTLR9 (inhibitory effect, antagonist score)” value did it give?
A: 11 (compounds for which there was clear down regulation only at 50 μg/ml)
